Experimental data as given in PubChem BioAssay AID1508642 (National Center for Advancing Translational Sciences (NCATS), 2021).
Hit rate of the full screen: of about 43,000 compounds, about 200 (0.47%) were called active. Inconclusive means that the source gave no clear call. Such entries were picked first, then a sample of the others. Calls come from the whole dose curve; as a rule, active = well fitted cell-killing curve with a large enough effect; inconclusive = small, poorly fitted or top-dose-only effect, or effect the other way; inactive = flat fitted curve, though single readings scatter. Potencies of inconclusive entries are doubtful fits and often do not repeat.

Experiment: Cell viability qHTS assay in S16 Pmp22-F2sN cells; note: nearly all actives have a fitted effect of over 65% in size
Conditions: S16 Pmp22-F2sN Schwann cells (luciferase reporters placed in the Pmp22 gene) viability, CellTiter-Glo, 24 h; activity change, negative = cytotoxicity: at 57.5 µM (top of the series)
How it was run: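 CellTiter-Glo counter-screen, qHTS, 1536-well. Cells: S16(c9) Pmp22-F2sN, 500-1,000/well in DMEM + 10% FBS. Cpd 23 nL pin transfer, 24 h, 37C/5% CO2. Read: luminescence, CCD imager.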
% is set by controls: 0 for no effect and ±100 for the full control effect; potency is the fitted concentration of half-maximal effect; tags give direction and shape of the fitted curve.

SMILES | Potency | activity change, negative = cytotoxicity
COc1ccc(CNC(=O)c2cnn3c(C)c(Cc4c(F)cccc4Cl)c(C)nc23)cc1 | inconclusive: 39.8 µM [cytotoxic, single point] | 
O=C(NCCCN1CCN(c2cccc(Cl)c2)CC1)c1cnn(-c2ccc(F)cc2)c1-n1cccc1 |  | inactive: -18.3%
COc1ccc(CCNc2ncnc3c2nnn3C)cc1 | inconclusive: 15.8 µM [cytotoxic, single point] | 
Cc1cc(-c2ccc(C)c(S(=O)(=O)N3CCOc4ccc(Cl)cc43)c2)on1 |  | inactive: 9.84%
CCOc1ccc(-n2nc3ccc(NC(=O)Cc4ccccc4)cc3n2)cc1 | inconclusive: 31.6 µM [cytotoxic, single point] | 
COc1cccc(NC(=O)Cn2nc3c4ccccc4n(Cc4cccc(F)c4)cc-3c2=O)c1 |  | inactive: 10.7%
CCOc1ccc(NCc2cccn2-c2nnc(N3CCC(C(=O)NCc4ccc(C)cc4)CC3)s2)cc1 | inconclusive: 12.6 µM [cytotoxic, partial curve] | 
CCCCCNS(=O)(=O)c1ccc(N2CCCCS2(=O)=O)cc1 | inconclusive: 10 µM [cytotoxic, partial curve, poor fit] | 
O=C(NC1CC1)c1ccc(Cn2c(SCc3ccccc3F)nc3cccnc32)cc1 | inconclusive: 4.47 µM [cytotoxic, full curve, poor fit] | 
CCCCN(CC)CCCNC(=O)C1CCN(c2nc3ccc(CC)cc3s2)CC1 | inconclusive: 39.8 µM [cytotoxic, single point] | 
COc1ccc(OC)c2sc(N(Cc3cccnc3)C(=O)c3ccc(C(C)=O)cc3)nc12 | inconclusive: 39.8 µM [cytotoxic, single point] | 
COc1ccc(NC(=O)CN(C)S(=O)(=O)c2ccc3c(c2)CCCN3C(C)=O)cc1Cl | inconclusive: 22.4 µM [cytotoxic, single point] | 
Cc1cc(Nc2ccc(C(C)C)cc2)nc(-n2nc(C)cc2C)n1 | inconclusive: 3.98 µM [cytotoxic, partial curve, poor fit] | 
Cc1nnc(SCc2ccccc2Cl)c2cc3occc3n12 | inconclusive: 39.8 µM [cytotoxic, single point] | 
CCOC(=O)c1cccc(NS(=O)(=O)c2c(C)nc3sc(C)cn3c2=O)c1 | inconclusive: 39.8 µM [cytotoxic, single point] | 
Cc1cccc(Cn2c(SCc3ccc(C(=O)NCCc4ccccc4)cc3)nc3cccnc32)c1 | inconclusive: 39.8 µM [cytotoxic, single point] | 
COc1ccc(CNc2oc(COc3cccc(C)c3)nc2C#N)cc1 | inconclusive: 39.8 µM [cytotoxic, single point] | 
Cc1ccc(C)c(CN2C(=O)c3ccccc3Sc3ccc(C(=O)NCCCOC(C)C)cc32)c1 | inconclusive: 31.6 µM [cytotoxic, single point] | 
CC(=O)Nc1ccc2nc(SCc3ccccc3)sc2c1 |  | inactive: -8%
COc1ccccc1/C=C/c1nc(C#N)c(NC(C)c2ccccc2)o1 (stereo unspecified) | inconclusive: 39.8 µM [cytotoxic, single point] | 
Cc1ccc(NC(=O)CN2CCN(C3CCCCC3)C(=O)C2=O)cc1 | inconclusive: 11.2 µM [cytotoxic, partial curve, poor fit] | 

SMILES | Potency | activity change, negative = cytotoxicity
CCOC(=O)c1c(NC(=O)c2ccc(S(=O)(=O)N(C)C)cc2)sc2c1CCN(C)C2 |  | inactive: -7.14%
O=C(Nc1cccc(C(=O)N2CCN(c3ccc(F)cc3)CC2)c1)c1nsc2ccccc12 | inconclusive: 25.1 µM [cytotoxic, single point] | 
CCOc1ccc(-n2c(SC(C)C(=O)OC)nc3c([nH]c4ccccc43)c2=O)cc1 (stereo unspecified) | inconclusive: 2 µM [rising, full curve, poor fit] | 
Cc1ccc(OC(C)C(=O)NCC2(N3CCOCC3)CCCCC2)cc1C (stereo unspecified) |  | inactive: -15.1%
CCN(CCCNC(=O)c1cc2c(=O)[nH]c3ccc(C)cc3c2s1)Cc1ccccc1 | inconclusive: 39.8 µM [cytotoxic, single point] | 
CCc1cccc(NC(=O)c2ccc3c(=O)n4nc(Nc5ccccc5OC)sc4nc3c2)c1 | inconclusive: 3.55 µM [cytotoxic, full curve, poor fit] | 
CCCN(CCC)CCNC(=O)c1cc(Sc2ccc(Cl)cc2)nc2ccccc12 | inconclusive: 31.6 µM [cytotoxic, single point] | 
COc1ccccc1N1CCN(C(=O)C2CCCN(S(=O)(=O)c3ccc4c(c3)oc(=O)n4C)C2)CC1 (stereo unspecified) | inconclusive: 3.98 µM [cytotoxic, full curve] | 
COC(=O)c1c(SCC(=O)Nc2cc(F)ccc2F)[nH]c2ccc(C)cc2c1=O | inconclusive: 35.5 µM [cytotoxic, single point] | 
Cc1c(-c2ccc(Cl)cc2)c(=O)oc2c(CN3CCOCC3)c(O)ccc12 |  | inactive: -3.71%
COc1ccc(-c2cc(C(F)(F)F)nc(NCCc3ccccc3)n2)cc1 | inconclusive: 10 µM [rising, partial curve, poor fit] | 
COc1cccc(CNC(=O)CCCn2c(=O)c3cccn3c3cccnc32)c1OC |  | inactive: -0.429%
CCOc1ccc(-c2cc(C(=O)N3CCN(c4ccc(C)cc4)C(C)C3)c3ccccc3n2)cc1 (stereo unspecified) |  | inactive: -0.341%
CCOC(=O)c1cnc2ccccc2c1Nc1ccc(N2CCOCC2)cc1 |  | inactive: 2.49%
COc1ccccc1NC(=O)c1nc(SCc2ccc(F)cc2)ncc1Cl |  | inactive: 11.1%
COc1ccc(OC)c(NC(=O)c2sc3nc4c(cc3c2N)CCCCCC4)c1 |  | inactive: -1.79%
CCOC(=O)c1cccc(NC(=O)c2cnc(N3CCCCC3)c3ccccc23)c1 | inconclusive: 39.8 µM [cytotoxic, partial curve, poor fit] | 
O=C(NCCC1=CCCCC1)c1ccc2c(c1)N(Cc1ccc(Cl)cc1)C(=O)c1ccccc1S2=O (stereo unspecified) |  | inactive: -0.339%
Cc1cc(C)c(/C=C/c2onc(C)c2S(=O)(=O)N2CCC(C(=O)Nc3ccc(Cl)c(C(F)(F)F)c3)CC2)c(C)c1 | inconclusive: 39.8 µM [cytotoxic, single point] | 
CCOc1ccc(CCNC(=O)c2cc3c(=O)n(C)c4ccccc4c3n2C)cc1 | inconclusive: 7.94 µM [rising, full curve] | 
